Reference: ChEMBL document CHEMBL4888484, “Replenishing the malaria drug discovery pipeline: Screening and hit evaluation of the MMV Hit Generation Library 1 (HGL1) against asexual blood stage Plasmodium falciparum ,using a nano luciferase reporter read-out” (2022)
Screen size: about 150,000 compounds; about 540 (0.36%) showed an effect of 50% or more. The list shows a part of the results.

What follows are molecules tested on Plasmodium falciparum (assay: Primary screen in NF54 nanoGlo assay, in single point, at 2uM, 72h; a lower Z score goes with more inhibition). Settings: timepoint 72 hour.
Format: functional, Erythrocyte

Question: How did the “% Inhibition” value turn out when `Cc1ccc(CN2CCN(Cc3ccc(=O)n(C)c3)CC2)cc1` was run?
Answer: -6%

Question: What about the Z score of the same molecule?
Answer: 0.8

Question: Which “% Inhibition” value does the source give for `COc1ccccc1CC(=O)N1CCc2[nH]nc(C(=O)N3CCN(c4ccccc4C)CC3)c2C1` here?
Answer: -5%

Question: And the Z score?
Answer: 0.68

Question: How did the “% Inhibition” value turn out when `COc1ccc(CN2CCC(N(c3ccccc3)S(=O)(=O)c3ccc(C)cc3)CC2)cc1` was run?
Answer: -9%

Question: What about the Z score of the same molecule?
Answer: 1.02

Question: Which “% Inhibition” value does the source give for `Cc1ccc(-c2n[nH]cc2CN2C[C@@H](CO)[C@H](c3ccncc3)C2)cc1` here?
Answer: 0%

Question: And the Z score?
Answer: -0.05

Question: Which results are given for `COc1ccc(C(=O)NCN2CCN(c3ccc(F)cc3)CC2)cc1OC`?
Answer: % Inhibition: 36%; Z score: -4.61

Question: With `CC(C)c1cc(C(=O)N2CC[C@@]3(CCCN(CC4CCC4)C3=O)C2)on1` as the molecule, how does the “% Inhibition” value read?
Answer: 5%

Question: And the Z score?
Answer: -0.98

Question: What does the source list for `CC(C)NC(=O)Nc1ccc(N(C)C)c(CN(C(=O)CC(C)(C)C)C(C)C)c1`?
Answer: % Inhibition: -10%; Z score: 0.97

Question: How did the “% Inhibition” value turn out when `Cc1nc(C)c(CNC[C@H]2COc3ccccc32)s1` was run?
Answer: -2%

Question: What about the Z score of the same molecule?
Answer: 0.28

Question: What does the source list for `C[C@@H](CN1CCCC1=O)NC(=O)c1cc(F)c(O)c(Cl)c1`?
Answer: % Inhibition: -17%; Z score: 2.8

Question: How did the “% Inhibition” value turn out when `O=C(Nc1ccc(N2CCCCC2)cc1)c1cccc2ccccc12` was run?
Answer: -32%

Question: And the Z score?
Answer: 3.79

Question: For `O=C(NCCc1cccc(-c2ccccc2)c1)[C@@H]1CCCCN1`, which “% Inhibition” value is on record?
Answer: 0%

Question: What about the Z score of the same molecule?
Answer: 0.07

Question: `Cc1cnn(C[C@H](C)NCC(=O)NCc2ccc3c(c2)OCO3)c1` was tested. Which “% Inhibition” value did it give?
Answer: 3%

Question: And the Z score?
Answer: -0.48

Question: For `CC1CC(N2CCc3cncnc3C2)C(=O)O1` (stereo not drawn), which “% Inhibition” value is on record?
Answer: -14%

Question: What about the Z score of the same molecule?
Answer: 2.01

Question: For `CC(C)C[C@@H]1NC(=O)N(c2ccc3oc(-c4ccncc4)nc3c2)C1=O`, which “% Inhibition” value is on record?
Answer: -19%

Question: What about the Z score of the same molecule?
Answer: 3.69

Question: How did the “% Inhibition” value turn out when `COc1ncnc(OC)c1C(=O)N(C)CCc1ccc(Cl)cc1` was run?
Answer: -12%

Question: What about the Z score of the same molecule?
Answer: 2.17

Question: `CC(C)CO[C@H]1CCN(C(=O)Nc2ccncc2F)C1` was tested. Which “% Inhibition” value did it give?
Answer: -4%

Question: And the Z score?
Answer: 0.56

Question: What does the source list for `Cc1csc(C2(NC[C@H]3CN(C)C(=O)O3)CCOCC2)n1`?
Answer: % Inhibition: -4%; Z score: 0.63

Question: Which “% Inhibition” value does the source give for `CN(Cc1ncnn1C)c1nc2ccccc2nc1N1CCOCC1` here?
Answer: -1%

Question: And the Z score?
Answer: 0.21

Question: Which “% Inhibition” value does the source give for `Cn1cc2c(n1)CCCC2NC(CCO)c1ccco1` (stereo not drawn) here?
Answer: 2%

Question: What about the Z score of the same molecule?
Answer: -0.2

Question: With `CCCC(C)c1cc(NC(=O)C2CCCO2)[nH]n1` (stereo not drawn) as the molecule, how does the “% Inhibition” value read?
Answer: 2%

Question: What about the Z score of the same molecule?
Answer: -0.14

Question: Which “% Inhibition” value does the source give for `CCC1(CC)CN(C(=O)c2cn[nH]c(=O)c2)c2ccccc21` here?
Answer: 0%

Question: What about the Z score of the same molecule?
Answer: -0.01

Question: For `COc1ccc([C@H]2CC(=O)Nc3nc(N4CCCCC4)sc32)cc1OC(C)C`, which “% Inhibition” value is on record?
Answer: -23%

Question: And the Z score?
Answer: 2.95

Question: What does the source list for `CCOC(=O)C(=NO)Nc1ccccc1`?
Answer: % Inhibition: 2%; Z score: -0.34

Question: How did the “% Inhibition” value turn out when `O=C(NC1CC(O)C(CO)C1)c1cc(C2CC2)on1` (stereo not drawn) was run?
Answer: -7%

Question: And the Z score?
Answer: 1.06

Question: What does the source list for `CCC(NC(=O)NCC(O)c1ccsc1)c1ccccc1OC` (stereo not drawn)?
Answer: % Inhibition: 3%; Z score: -0.35

Question: Which “% Inhibition” value does the source give for `CC(C)Cc1nnc(C[C@H]2CCN(C(=O)C3CCOCC3)C2)o1` here?
Answer: -2%

Question: And the Z score?
Answer: 0.32

Question: For `O=C(CCCn1cncn1)N1CCC(C(=O)N2CCCC2)CC1`, which “% Inhibition” value is on record?
Answer: -2%

Question: What about the Z score of the same molecule?
Answer: 0.25

Question: For `C[C@@H]1CN(Cc2cc(O)c3cccc(Cl)c3n2)C[C@H](C)O1`, which “% Inhibition” value is on record?
Answer: 16%

Question: What about the Z score of the same molecule?
Answer: -2.03

Question: `COc1ccc(CCNC(=O)c2c(O)c3cccc4c3n(c2=O)CC4)cc1OC` was tested. Which “% Inhibition” value did it give?
Answer: -13%

Question: What about the Z score of the same molecule?
Answer: 1.13

Question: How did the “% Inhibition” value turn out when `Cc1cc(C)c2c(C(=O)NCc3nc(-c4cnccn4)n[nH]3)cc(C)nc2c1` was run?
Answer: -3%

Question: And the Z score?
Answer: 0.39

Question: What does the source list for `CCc1ccc(CC)c(NC(=O)NC(C)(C)CCS(C)(=O)=O)c1`?
Answer: % Inhibition: -4%; Z score: 0.39

Question: `CC(=O)Nc1ccc(C2OC(=O)N(Cc3ccc(C)cc3)C2C(=O)NCc2ccccn2)cc1` (stereo not drawn) was tested. Which “% Inhibition” value did it give?
Answer: 1%

Question: What about the Z score of the same molecule?
Answer: -0.09

Question: `N#Cc1ccc(NCc2cc3n(n2)CCN(C2CCCCC2)C3)nc1` was tested. Which “% Inhibition” value did it give?
Answer: 0%

Question: And the Z score?
Answer: 0.06

Question: For `C1CCC(NC2=NCCCNC23CCCCC3)CC1`, which “% Inhibition” value is on record?
Answer: -9%

Question: What about the Z score of the same molecule?
Answer: 1.55

Question: `c1ccc(-c2cc(-c3ccccn3)nc3ccc4ccccc4c23)cc1` was tested. Which “% Inhibition” value did it give?
Answer: -21%

Question: What about the Z score of the same molecule?
Answer: 2.78

Question: Which “% Inhibition” value does the source give for `CS(=O)(=O)N1C[C@H]2CC[C@@H](C1)N(C(=O)c1ncc(F)cc1F)C2` here?
Answer: -3%

Question: And the Z score?
Answer: 0.51

Question: `COC(=O)CCN(C(=O)[C@H]1CCCC12OCCO2)C(C)C` was tested. Which “% Inhibition” value did it give?
Answer: 1%

Question: What about the Z score of the same molecule?
Answer: -0.11

Question: With `CCN(CC(=O)Nc1c(F)cccc1F)CC(=O)N1c2ccccc2NC(=O)C[C@@H]1C` as the molecule, how does the “% Inhibition” value read?
Answer: -8%

Question: What about the Z score of the same molecule?
Answer: 1.08

Question: For `CCOc1ccc(NC2=C(C(N)=O)S(=O)(=O)c3ccccc32)cc1`, which “% Inhibition” value is on record?
Answer: -5%

Question: And the Z score?
Answer: 0.51

Question: For `N#Cc1ccc(C(=O)N2CCN3CCS(=O)(=O)N(C4CC4)C(=O)[C@@H]3C2)cc1`, which “% Inhibition” value is on record?
Answer: -6%

Question: What about the Z score of the same molecule?
Answer: 0.79

Question: Which results are given for `Cn1nc(CN(C(=O)c2cccnc2)C2CCCC2)c2c1CCC2`?
Answer: % Inhibition: -6%; Z score: 1.17

Question: Which results are given for `CCCOCC(=O)Nc1cc(C(=O)O)c(Br)cc1C`?
Answer: % Inhibition: -10%; Z score: 1.19

Question: Which results are given for `O=C1[C@@H]2CCCN2C(=O)N1Cc1cc(-c2ccc(Cl)cc2)no1`?
Answer: % Inhibition: 30%; Z score: -3.42

Question: How did the “% Inhibition” value turn out when `CC1CCN(C(=O)c2n[nH]c3c2CN(C(=O)Cc2ccccc2Cl)CC3)CC1` was run?
Answer: 2%

Question: And the Z score?
Answer: -0.24

Question: Which results are given for `Cc1nc(C)c(-c2nc(-c3ccc4oc(-c5ccccc5)nc4c3)no2)s1`?
Answer: % Inhibition: -3%; Z score: 0.3

Question: How did the “% Inhibition” value turn out when `Cc1cc(CN(C)C(=O)c2ocnc2C)no1` was run?
Answer: -7%

Question: What about the Z score of the same molecule?
Answer: 1.13

Question: For `C[C@@H](c1nnc(-c2ccccc2F)s1)N(C)Cc1ccc(F)cc1`, which “% Inhibition” value is on record?
Answer: 0%

Question: What about the Z score of the same molecule?
Answer: -0.04

Question: With `COc1cccc(C(=O)N2CCN(C(=O)C[C@H]3CCS(=O)(=O)C3)CC2)c1` as the molecule, how does the “% Inhibition” value read?
Answer: -12%

Question: And the Z score?
Answer: 2.09

Question: `CCN1CC(C)N(S(=O)(=O)c2cc(C(=O)NC)n(C)c2)C(C)C1` (stereo not drawn) was tested. Which “% Inhibition” value did it give?
Answer: -12%

Question: And the Z score?
Answer: 1.82

Question: `COc1ccc(-c2ccn(CC(=O)Nc3cc(C)nn3C)n2)cc1F` was tested. Which “% Inhibition” value did it give?
Answer: -14%

Question: What about the Z score of the same molecule?
Answer: 1.72

Question: What does the source list for `CC(C)[C@H](NC(=O)Nc1ccnn1C(C)(C)C)c1cnn(C)c1`?
Answer: % Inhibition: -12%; Z score: 1.82

Question: Which “% Inhibition” value does the source give for `O=C(Cc1cnc2ccccc2c1)N1CCC([C@@H]2CCCO2)CC1` here?
Answer: -14%

Question: And the Z score?
Answer: 1.95

Question: How did the “% Inhibition” value turn out when `COCCCNC(=O)c1cc2cc(S(=O)(=O)N(C)C)ccc2n1Cc1ccncc1` was run?
Answer: -14%

Question: And the Z score?
Answer: 1.98

Question: How did the “% Inhibition” value turn out when `CCCN1C(=O)N[C@@H](Cc2ncnn2Cc2ccc(OC)cc2)C1=O` was run?
Answer: -8%

Question: What about the Z score of the same molecule?
Answer: 1.2
